# Test results reported in PubChem BioAssay AID485341 (National Center for Advancing Translational Sciences (NCATS), 2010).
# Among all 330,000 compounds or so, about 1,700 (0.52%) were called active. This list was built around the results that the source calls inconclusive (neither active nor inactive); the mix of calls is not that of the screen. Calls follow the shape of the dose curve; as a rule, active = well fitted inhibition curve with a large enough effect; inconclusive = small, poorly fitted or top-dose-only effect; inactive = no such curve, though single readings can be large or run the other way. Potencies beside an inconclusive call are fits to weak or partial responses and may not hold up.
# Target: Beta-lactamase (Escherichia coli (strain K12)) (UniProt P00811)
# Test: qHTS Inhibitors of AmpC Beta-Lactamase (assay without detergent); also: nearly all actives have a fitted effect of over 20% in size;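 as to activity change, negative = inhibition: plate controls were no compound for no effect and no enzyme for full effect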
# Conditions: AmpC nitrocefin hydrolysis, absorbance 480 nm, 0.0001% Triton; activity change, negative = inhibition: at 57.1 µM (top of the series) unless noted
# Summary of the method: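 AmpC (5.3 nM in the dispensed reagent) in 20 mM phosphate pH 7.0 with 0.01% (detergent screen) or 0.0001% Triton X-100 was preincubated with compounds for 15 min at room temperature. Nitrocefin was then added from an 800 uM solution, and hydrolysis was followed at 480 nm.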
# Potency is read from the fitted curve at half-maximal effect; tags tell the direction and shape of the fitted curve.
# UniProt P00811, sequence (P00811 whole entry, looked up): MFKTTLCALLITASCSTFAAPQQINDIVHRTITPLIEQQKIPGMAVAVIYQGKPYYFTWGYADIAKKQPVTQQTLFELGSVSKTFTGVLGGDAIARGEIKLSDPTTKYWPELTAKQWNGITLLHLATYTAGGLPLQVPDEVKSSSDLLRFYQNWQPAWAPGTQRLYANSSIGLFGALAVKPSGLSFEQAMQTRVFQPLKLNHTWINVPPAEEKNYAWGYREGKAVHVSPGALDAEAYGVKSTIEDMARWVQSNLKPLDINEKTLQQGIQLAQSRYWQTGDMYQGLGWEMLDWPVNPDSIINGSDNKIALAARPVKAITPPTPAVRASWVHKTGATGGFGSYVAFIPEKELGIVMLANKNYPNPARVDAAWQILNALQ
Compound,"activity change, negative = inhibition",Potency
Cc1ccc(NC(=O)CN2CCCCCC2)c(Br)c1,inactive: -22.4%,
COc1cccc(-c2nc(CS(=O)(=O)CC(=O)N3CCN(C4CCCCC4)CC3)c(C)o2)c1,,"inconclusive: 50.1 µM [inhibitor, partial curve, poor fit]"
CCN1CCN(C(=O)c2ccc3c(=O)n(CCc4ccccc4)c(=O)[nH]c3c2)CC1,inactive: 44.9%,
COc1ccc(Nc2c(-c3ccco3)nc3cccc(C)n23)cc1,,"inconclusive: 28.2 µM [inhibitor, single point]"
O=C1CC(NS(=O)(=O)c2cccnc2)CN1c1ccc(F)cc1 (centres undefined),,"inconclusive: 39.8 µM [inhibitor, single point]"
Nc1c(N)c2ccccc2oc1=O,inactive: -13.7%,
c1ccc2oc(C3=NNC(=NC4CC4)SC3)cc2c1,,"inconclusive: 31.6 µM [inhibitor, single point]"
O=C(Nc1ccc(S(=O)(=O)NCc2cccnc2)cc1)c1ccccc1Cl,inactive: -2.25%,
COc1ccc(/C=C(/CC(=O)NCc2ccc(Cl)cc2)c2nc3ccccc3s2)cc1,,active: 17.8 µM
COc1ccccc1-c1nn2c(=O)cc(C)nc2s1,inactive: -12%,
Cc1cc(C)nc(Nc2ncc(O)n2-c2ccc(C)c(Cl)c2)n1,,active: 0.316 µM
COC(=O)c1c(NC(=O)CSc2nc3ccccc3c(=O)n2-c2ccccc2)sc(C)c1C,,"inconclusive: 5.01 µM [inhibitor, single point]"
CS(=O)(=O)N(CC(=O)Nc1ccc2c(c1)OCO2)Cc1ccccc1,,"inconclusive: 6.31 µM [inhibitor, single point]"
C=CCN1C(=O)c2ccc(C(=O)OCC(=O)N3CCN(c4ccccc4)CC3)cc2C1=O,,"inconclusive: 39.8 µM [inhibitor, single point]"
CCc1ccc2c(c1)cc(CN(C(=S)Nc1ccccc1)C1CC1)c1nnnn12,,"inconclusive: 8.91 µM [inhibitor, single point]"
COc1cccc(N2CC(NS(=O)(=O)c3ccc(Cl)cc3)CC2=O)c1 (centres undefined),,"inconclusive: 31.6 µM [inhibitor, single point]"
Nc1nc(-c2ccc(-n3nncc3-c3ccco3)cc2)cs1,,"inconclusive: 14.1 µM [inhibitor, partial curve]"
CC(C)(C)c1nc(NC(=O)Nc2ccccc2)sc1Br,inactive: -32.6% [at 2.29 µM],
O=C(NCC(c1ccco1)N1CCN(c2ccccc2F)CC1)c1cccs1 (centres undefined),,"inconclusive: 28.2 µM [inhibitor, single point]"
CN(C)CCN1C(=O)c2oc3ccc(F)cc3c(=O)c2C1c1ccncc1 (centres undefined),,"inconclusive: 25.1 µM [inhibitor, partial curve, poor fit]"
Clc1ccc(-c2csc(N/N=C/c3ccc4c(c3)OCO4)n2)cc1,,"inconclusive: 1 µM [inhibitor, full curve, poor fit]"
O=C(O)/C=C\C(=O)Nc1cccc(NC(=O)c2ccccc2)c1,,"inconclusive: 22.4 µM [inhibitor, single point]"
CN(CC(=O)Nc1ccccc1Br)C(=O)c1ccc(COc2ccccc2)cc1,inactive: 17.3%,

Compound,"activity change, negative = inhibition",Potency
COc1ccc(OC(=O)c2c(C)nn(-c3ccccc3)c2C)cc1,inactive: 20.5%,
Oc1ccc(C=Nc2cccc3ccccc23)c(O)c1,inactive: -55.8%,
N#Cc1c(Sc2ncc(C(F)(F)F)cc2Cl)nsc1C/C=N\OCc1ccccc1Br,,"inconclusive: 7.94 µM [inhibitor, partial curve]"
COc1ccc(NC(=O)CNS(=O)(=O)c2ccccc2)cc1Cl,,active: 0.631 µM
C=CCSc1nnc(-c2cc3c(s2)-c2ccccc2CC3)o1,,"inconclusive: 5.01 µM [inhibitor, single point]"
O=c1c2c(-c3cccs3)csc2ncn1-c1ccccc1,inactive: -46.1%,
CN(C)S(=O)(=O)c1ccc(C(=O)NNc2nc(-c3ccccc3)c3cc(Br)ccc3n2)cc1,,"inconclusive: 3.55 µM [inhibitor, partial curve]"
C=CCNC(=S)N/N=C/c1ccc(C)cc1C,inactive: -33.8%,
CCOC(=O)C(=CNCC(=O)OC)C(=O)OCC,,"inconclusive: 6.31 µM [inhibitor, single point]"
CNC(=O)c1ccsc1NC(=O)c1ccc2c(c1)CCCC2,,"inconclusive: 17.8 µM [inhibitor, partial curve]"
CSc1ncccc1C(=O)OCC(=O)N1CCN(S(=O)(=O)c2ccc(C)cc2C)CC1,,"inconclusive: 39.8 µM [inhibitor, single point]"
CCS(=O)(=O)N1CCC(c2nc(-c3ccc(C(F)(F)F)cc3)no2)CC1,inactive: 18.9%,
CS(=O)(=O)N1N=C(c2cccs2)CC1c1ccccc1 (centres undefined),inactive: -6.74%,
CC(C)OC(=O)c1cn(-c2ccccc2)nc1-c1ccco1,inactive: -19.8%,
COc1ccc(/C=C(\C#N)C(=O)Nc2cc(S(=O)(=O)N3CCCCC3)ccc2N2CCCCC2)cc1,,"inconclusive: 3.16 µM [inhibitor, partial curve]"
Cc1[nH]n(-c2ncc(-c3ccccc3)s2)c(=O)c1C(c1ccc(Cl)cc1)C(C#N)C#N (centres undefined),,active: 31.6 µM
CC1(C)Cc2c(c(N3CCOCC3)nc3sc4c(NCCN5CCOCC5)nnnc4c23)CS1,inactive: 78.3%,
O=C(NCc1ccco1)C1CCN(c2nnc(-n3cccc3)s2)CC1,,active: 0.794 µM
CCOc1cc(CNc2ncnc3nc[nH]c23)ccc1OC,,"inconclusive: 22.4 µM [inhibitor, partial curve, poor fit]"
NC(=O)C(=CNc1nc(-c2ccc(Cl)c(Cl)c2)cs1)C(N)=O,,active: 14.1 µM
Cc1ccc(NC(=O)Cn2nc([N+](=O)[O-])c(Br)c2C)cc1C,,"inconclusive: 20 µM [inhibitor, partial curve]"
COc1ccc(-n2c(Cc3cccn3C)nnc2SCC(=O)NC2CCCC2)cc1,,"inconclusive: 50.1 µM [inhibitor, partial curve, poor fit]"
Cc1ccc(S(=O)(=O)CCC(=O)OCC(=O)N(Cc2ccccc2)C(C)C)cc1,,"inconclusive: 35.5 µM [inhibitor, single point]"

Compound,"activity change, negative = inhibition",Potency
COc1cc(NC(=O)c2cc(CC(C)C)on2)c(OC)cc1Cl,,"inconclusive: 89.1 µM [inhibitor, partial curve, poor fit]"
Cc1ccccc1C(=O)OC1OC(=O)C(Cl)=C1Nc1ccccc1 (centres undefined),,active: 6.31 µM
COC(=O)CC1Oc2ccccc2N(Cc2ccccc2)C1=O (centres undefined),,"inconclusive: 25.1 µM [inhibitor, partial curve, poor fit]"
COc1ccccc1NC(=O)c1ccccc1C(=O)Nc1ccccc1OC,inactive: -17.9%,
CC1CCCC(C)N1C(=O)COC(=O)c1nn(C)c(=O)c2ccccc12 (centres undefined),inactive: 4.96%,
O=C(O)C[C@@H]1C(=O)O[C@@H]2C(COC(=O)c3cc(O)c(O)c(O)c3)O[C@@H](OC(=O)c3cc(O)c(O)c(O)c3)[C@@H](OC(=O)c3cc(O)c(O)c4c3[C@H]1[C@H](O)C(=O)O4)[C@H]2OC(=O)c1cc(O)c(O)c(O)c1 (some centres undefined),inactive: -47.1%,
O=[N+]([O-])c1ccc(N2CCN(S(=O)(=O)c3ccccc3)CC2)cc1,,"inconclusive: 10 µM [inhibitor, partial curve]"
CCOC(=O)c1c(NC(=O)COC(=O)Cn2cnc3c2c(=O)n(C)c(=O)n3C)sc(C)c1CC,,"inconclusive: 39.8 µM [inhibitor, single point]"
O=C(Nc1ccccc1C(=O)NCc1ccco1)Nc1cccc2ccccc12,,active: 20 µM
O=C(COC(=O)C1=COCCO1)Nc1ccc(F)c(F)c1,,"inconclusive: 31.6 µM [inhibitor, single point]"
COc1cc(/C=C(/C#N)c2nc3ccccc3[nH]2)ccc1OC(=O)c1ccco1,,"inconclusive: 2.51 µM [inhibitor, partial curve, poor fit]"
Cc1ccc(-c2nc3ccccc3nc2-c2ccccc2)cc1,inactive: 2.57%,
Cc1ccc(C2CC(c3ccc(NS(C)(=O)=O)cc3)=NN2C(=O)c2ccco2)cc1 (centres undefined),,"inconclusive: 3.16 µM [inhibitor, full curve, poor fit]"
Cc1cccc(-n2c(SCC(=O)N3CC(=O)Nc4ccccc43)nc3ccccc3c2=O)c1C,,"inconclusive: 3.98 µM [inhibitor, single point]"
N#Cc1cccc(NC(=O)COC(=O)c2ccccc2C(=O)c2ccc(Cl)c([N+](=O)[O-])c2)c1,,"inconclusive: 3.55 µM [inhibitor, single point]"
COc1cccc(NC(=O)N2CCC(n3nnc4ccccc43)CC2)c1,,"inconclusive: 7.94 µM [inhibitor, partial curve]"
CC(/C=C1\SC(=S)N(CCC(=O)Nc2ccc(O)cc2)C1=O)=C\c1ccccc1,,"inconclusive: 3.16 µM [inhibitor, full curve, poor fit]"
CC(C)(C)c1ccc(C(=O)Nc2nonc2-c2nc3ccccc3[nH]2)cc1,,"inconclusive: 1 µM [inhibitor, full curve, poor fit]"
O=C(Nc1cccc(Cl)c1)NC1(C(=O)NCc2cccs2)CCCCC1,,"inconclusive: 8.91 µM [inhibitor, single point]"
CCCc1cc(-c2nc(-c3ccc(Cl)cc3)cs2)ccn1,inactive: 6.26%,
COc1ccc(OC)c(Nc2cc(C)nc3nc(C)nn23)c1,,"inconclusive: 1.12 µM [inhibitor, full curve, poor fit]"
C=CCNC(=O)C1=NOC(CNC(=O)c2c(-c3ccccc3Cl)noc2C)C1 (centres undefined),,"inconclusive: 6.31 µM [inhibitor, single point]"
COc1ccc(NS(=O)(=O)c2cccc(C(=O)NCc3ccccn3)c2)cc1,,"inconclusive: 35.5 µM [inhibitor, single point]"
